The values that follow come from the BET-seq Pho4 binding data (Le et al. 2018).

The list shows a part of the results. The energies were worked out here from pooled read counts, against the library average; single values are noisy.

This assay has as its target T1, Pho4 (S. cerevisiae) (UniProt P07270).
T1 sequence: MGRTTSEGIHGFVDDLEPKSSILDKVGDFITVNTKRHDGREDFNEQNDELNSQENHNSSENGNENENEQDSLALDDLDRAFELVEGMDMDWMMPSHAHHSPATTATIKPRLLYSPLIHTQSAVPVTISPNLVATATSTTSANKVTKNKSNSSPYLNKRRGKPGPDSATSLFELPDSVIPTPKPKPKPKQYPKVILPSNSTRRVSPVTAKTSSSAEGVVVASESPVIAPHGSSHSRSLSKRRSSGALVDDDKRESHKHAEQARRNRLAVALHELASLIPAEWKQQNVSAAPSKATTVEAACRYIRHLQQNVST
As to the kind of experiment: relative binding free energy (BET-seq); higher = weaker binding. The conditions noted are these: reference: library average.
Regarding ATTATCACGTGCTTTG, the “relative binding free energy” value was found to be 0.05 kcal/mol.

For the sequence CAGGTCACGTGAGTAT, the “relative binding free energy” value amounted to 0.36 kcal/mol.

Turning to GTGAGCACGTGGATGA, the “relative binding free energy” value was -0.04 kcal/mol.

As to CTGGGCACGTGGTTTC, the “relative binding free energy” value is -0.1 kcal/mol.

For the sequence CATGGCACGTGTGCGG, the “relative binding free energy” value was -0.15 kcal/mol.

GATGACACGTGTTGAT: the “relative binding free energy” value was 0.06 kcal/mol.

Regarding TTTTACACGTGTAAGA, the “relative binding free energy” value was 0.26 kcal/mol.

For the sequence GAAGTCACGTGTATGT, the “relative binding free energy” value is 0.13 kcal/mol.

On to ATGGGCACGTGCGTAT, for which the “relative binding free energy” value is -0.13 kcal/mol.

In the case of GGAATCACGTGGAGTA, the “relative binding free energy” value was found to be 0.2 kcal/mol.

As to TTGATCACGTGTCGTG, the “relative binding free energy” value was found to be 0.16 kcal/mol.

With TAATTCACGTGTATAA, the “relative binding free energy” value is 0.19 kcal/mol.

Consider GTGCTCACGTGGTTGG, for which the “relative binding free energy” value turned out to be 0.32 kcal/mol.

For the sequence TTGGGCACGTGGCTGT, the “relative binding free energy” value is -0.08 kcal/mol.

On to GTGCTCACGTGTTTGT, for which the “relative binding free energy” value was found to be 0.17 kcal/mol.

With GTTGCCACGTGCGGTG, the “relative binding free energy” value was -0.07 kcal/mol.

TTTCACACGTGATGTT: the “relative binding free energy” value was 0.3 kcal/mol.

As to TCTGTCACGTGTCAGG, the “relative binding free energy” value came out at 0.01 kcal/mol.

For AGAGGCACGTGGGCTA, the “relative binding free energy” value is -0.29 kcal/mol.

For the sequence TTTTACACGTGAAATT, the “relative binding free energy” value was found to be 0.38 kcal/mol.

Take GTGTGCACGTGCATTG: the “relative binding free energy” value was 0.13 kcal/mol.

Take ATTAGCACGTGAATTT: the “relative binding free energy” value is 0.17 kcal/mol.

As for CTGTACACGTGTAAGT, the “relative binding free energy” value was 0.18 kcal/mol.

In the case of AGTGCCACGTGTGGTA, the “relative binding free energy” value came out at 0.08 kcal/mol.

Consider TATAACACGTGCAGGT, for which the “relative binding free energy” value came out at 0.1 kcal/mol.

Turning to GCTGGCACGTGGTGAA, the “relative binding free energy” value is -0.1 kcal/mol.

On to TAATGCACGTGTTTTC, for which the “relative binding free energy” value was determined as 0.1 kcal/mol.

As for TAACGCACGTGTTAGG, the “relative binding free energy” value was -0.13 kcal/mol.

Turning to TGGACCACGTGGGAGT, the “relative binding free energy” value was -0.12 kcal/mol.

For AGACTCACGTGGGGTG, the “relative binding free energy” value came to 0.05 kcal/mol.

On to ATCAGCACGTGGATGG, for which the “relative binding free energy” value was -0.06 kcal/mol.

For the sequence GTGAGCACGTGCTAGG, the “relative binding free energy” value is -0.26 kcal/mol.

Take ATTTACACGTGCGTAT: the “relative binding free energy” value was -0.01 kcal/mol.

TAGGACACGTGGGTCC: the “relative binding free energy” value was found to be 0.23 kcal/mol.

GGTGTCACGTGTCAGA: the “relative binding free energy” value turned out to be 0.23 kcal/mol.

Consider GGGAGCACGTGGTTCT, for which the “relative binding free energy” value is -0.09 kcal/mol.

GCAGGCACGTGTGTGA: the “relative binding free energy” value is -0.08 kcal/mol.

As for TCTTACACGTGTATGG, the “relative binding free energy” value was found to be 0.1 kcal/mol.

Take AGATGCACGTGGGTAA: the “relative binding free energy” value was -0.27 kcal/mol.

For the sequence GAGCGCACGTGGGAGG, the “relative binding free energy” value was -0.22 kcal/mol.

For GAGGCCACGTGGATGG, the “relative binding free energy” value was -0.05 kcal/mol.

On to AGGAACACGTGTGTAT, for which the “relative binding free energy” value was -0.02 kcal/mol.

On to ATACACACGTGTATGG, for which the “relative binding free energy” value was 0.07 kcal/mol.

With CATGTCACGTGGCTGG, the “relative binding free energy” value was 0.02 kcal/mol.

For TACGACACGTGGTGTA, the “relative binding free energy” value is -0.05 kcal/mol.

As to CGTCTCACGTGTGATG, the “relative binding free energy” value is 0.19 kcal/mol.

As to GGCGGCACGTGCGGTT, the “relative binding free energy” value is -0.14 kcal/mol.

For the sequence ATAAGCACGTGGATAT, the “relative binding free energy” value was 0.01 kcal/mol.

Consider GATGTCACGTGATTGC, for which the “relative binding free energy” value was 0.2 kcal/mol.

As to TAGATCACGTGAGTTG, the “relative binding free energy” value came out at 0.25 kcal/mol.

For the sequence TAAGGCACGTGTTGAA, the “relative binding free energy” value was -0.16 kcal/mol.

For the sequence CGTTTCACGTGTTATG, the “relative binding free energy” value amounted to 0.15 kcal/mol.

On to TGTTTCACGTGGAGGT, for which the “relative binding free energy” value amounted to 0.26 kcal/mol.

Regarding GATATCACGTGTGGTC, the “relative binding free energy” value was found to be 0.16 kcal/mol.

Regarding GCGGTCACGTGATTGG, the “relative binding free energy” value was found to be 0.37 kcal/mol.

For the sequence ATAGGCACGTGATCGG, the “relative binding free energy” value was -0.18 kcal/mol.

For the sequence AGATCCACGTGTTGGG, the “relative binding free energy” value came out at 0.1 kcal/mol.

In the case of TTGGTCACGTGAGAAT, the “relative binding free energy” value was 0.35 kcal/mol.

Turning to TTTATCACGTGTAATC, the “relative binding free energy” value was found to be 0.27 kcal/mol.

On to TTCGTCACGTGGTGTT, for which the “relative binding free energy” value was found to be 0.12 kcal/mol.

For GTCGGCACGTGGTATT, the “relative binding free energy” value was 0.03 kcal/mol.

For the sequence CGGTGCACGTGCGGTG, the “relative binding free energy” value is -0.09 kcal/mol.

For TCAGACACGTGTGTGG, the “relative binding free energy” value stood at 0.1 kcal/mol.

GGGACCACGTGGTTTT: the “relative binding free energy” value was -0.01 kcal/mol.

On to TGCTGCACGTGAGCTG, for which the “relative binding free energy” value was 0.23 kcal/mol.

As for TAAGCCACGTGTAGTT, the “relative binding free energy” value was determined as 0.07 kcal/mol.

For the sequence ATCTGCACGTGGGGGA, the “relative binding free energy” value was -0.11 kcal/mol.

For TTTCTCACGTGTTTAG, the “relative binding free energy” value came out at 0.18 kcal/mol.

As for TTCTGCACGTGTATTT, the “relative binding free energy” value came to 0.01 kcal/mol.

With TTTATCACGTGATCGG, the “relative binding free energy” value was 0.21 kcal/mol.

For GGGATCACGTGATGTA, the “relative binding free energy” value was determined as 0.36 kcal/mol.

For the sequence CGTTTCACGTGCTGTA, the “relative binding free energy” value worked out at 0.24 kcal/mol.

Take CATTACACGTGTTGAG: the “relative binding free energy” value came out at 0.31 kcal/mol.

As to TGGTTCACGTGTCCGG, the “relative binding free energy” value is 0.46 kcal/mol.

In the case of TGAGTCACGTGATGTG, the “relative binding free energy” value was 0.29 kcal/mol.

Turning to GGGGCCACGTGGCAGT, the “relative binding free energy” value is -0.12 kcal/mol.

As for CGTGTCACGTGTATAT, the “relative binding free energy” value was determined as 0.05 kcal/mol.

Consider GTTGGCACGTGCTGAG, for which the “relative binding free energy” value is -0.06 kcal/mol.

In the case of ATTTTCACGTGAGGGT, the “relative binding free energy” value worked out at 0.41 kcal/mol.

Regarding GTGTGCACGTGAAGCG, the “relative binding free energy” value was 0.24 kcal/mol.

In the case of TATTACACGTGCAGTG, the “relative binding free energy” value worked out at 0.02 kcal/mol.

As for TTAAGCACGTGAGATT, the “relative binding free energy” value is 0.16 kcal/mol.

With TTGGACACGTGTGGCG, the “relative binding free energy” value was 0.12 kcal/mol.

For the sequence AGGTGCACGTGTTGGG, the “relative binding free energy” value was found to be 0.03 kcal/mol.

As to AGCGGCACGTGGAGAA, the “relative binding free energy” value amounted to 0.04 kcal/mol.

In the case of CAGTACACGTGGTAGT, the “relative binding free energy” value worked out at 0.08 kcal/mol.

In the case of TCATACACGTGGTTGG, the “relative binding free energy” value was 0.01 kcal/mol.

Regarding GGGGGCACGTGCACGT, the “relative binding free energy” value was -0.25 kcal/mol.

In the case of TGTGACACGTGAATGT, the “relative binding free energy” value was determined as 0.12 kcal/mol.

TGATTCACGTGTGTCG: the “relative binding free energy” value was 0.09 kcal/mol.

TATTGCACGTGGCGCT: the “relative binding free energy” value was -0.1 kcal/mol.

Turning to GTGCACACGTGTGAGG, the “relative binding free energy” value was -0.02 kcal/mol.

For the sequence GTGTACACGTGTTAAA, the “relative binding free energy” value was determined as 0.2 kcal/mol.

Take AGGCACACGTGTGGGC: the “relative binding free energy” value was found to be 0.02 kcal/mol.

On to TGGAACACGTGGGGGG, for which the “relative binding free energy” value is -0.03 kcal/mol.

Consider AGTATCACGTGAATTA, for which the “relative binding free energy” value turned out to be 0.37 kcal/mol.

GAATTCACGTGTTGTT: the “relative binding free energy” value worked out at 0.31 kcal/mol.

In the case of TCCGGCACGTGTGGCG, the “relative binding free energy” value is 0.04 kcal/mol.

Consider GTTTTCACGTGATGGG, for which the “relative binding free energy” value turned out to be 0.36 kcal/mol.

Regarding ATTGGCACGTGAGGTA, the “relative binding free energy” value turned out to be 0.07 kcal/mol.

With CGTATCACGTGGTGGG, the “relative binding free energy” value was 0.09 kcal/mol.

As to GGTTTCACGTGCGCGT, the “relative binding free energy” value came out at 0.19 kcal/mol.

Take TGCTTCACGTGAGGGT: the “relative binding free energy” value was 0.4 kcal/mol.

Regarding AGTAGCACGTGATAGT, the “relative binding free energy” value amounted to 0.05 kcal/mol.

On to AGGACCACGTGGAGGG, for which the “relative binding free energy” value was -0.11 kcal/mol.

Turning to TGTTCCACGTGCTGTT, the “relative binding free energy” value is 0 kcal/mol.

Take GTTAGCACGTGAGGAA: the “relative binding free energy” value turned out to be 0.08 kcal/mol.

TTGGGCACGTGAGTGG: the “relative binding free energy” value stood at 0.19 kcal/mol.

On to ATTAGCACGTGGTGAA, for which the “relative binding free energy” value is -0.07 kcal/mol.

On to TAGGGCACGTGGGTCT, for which the “relative binding free energy” value is -0.27 kcal/mol.

With AAGGTCACGTGAGAGT, the “relative binding free energy” value stood at 0.32 kcal/mol.

For CGGGGCACGTGCTGTT, the “relative binding free energy” value is -0.17 kcal/mol.

Regarding AGGCTCACGTGTTAAG, the “relative binding free energy” value worked out at 0.37 kcal/mol.

As for TGTAACACGTGCTGGT, the “relative binding free energy” value was -0.05 kcal/mol.

For the sequence TGTTCCACGTGAAATG, the “relative binding free energy” value came to 0.41 kcal/mol.
